Out of some 370,000 compounds screened, about 150 (0.041%) were called active. This list was built around the results that the source calls inconclusive (neither active nor inactive); the mix of calls is not that of the screen. The call rests on the fitted dose curve; in most records, active means well fitted inhibition curve with a large enough effect; inconclusive means small, poorly fitted or top-dose-only effect; inactive means flat fitted curve, though single readings scatter. Potencies of inconclusive entries are left out as doubtful fits.
molecular target: Beta-lactamase (Escherichia coli (strain K12)) (UniProt P00811); test: qHTS Inhibitors of AmpC Beta-Lactamase (assay with detergent); settings: AmpC hydrolysis of nitrocefin, absorbance 480 nm, 0.01% Triton; series mostly up to 114 µM; further: nearly all actives have a fitted effect of over 25% in size
Chain of UniProt P00811 (P00811 whole entry, looked up): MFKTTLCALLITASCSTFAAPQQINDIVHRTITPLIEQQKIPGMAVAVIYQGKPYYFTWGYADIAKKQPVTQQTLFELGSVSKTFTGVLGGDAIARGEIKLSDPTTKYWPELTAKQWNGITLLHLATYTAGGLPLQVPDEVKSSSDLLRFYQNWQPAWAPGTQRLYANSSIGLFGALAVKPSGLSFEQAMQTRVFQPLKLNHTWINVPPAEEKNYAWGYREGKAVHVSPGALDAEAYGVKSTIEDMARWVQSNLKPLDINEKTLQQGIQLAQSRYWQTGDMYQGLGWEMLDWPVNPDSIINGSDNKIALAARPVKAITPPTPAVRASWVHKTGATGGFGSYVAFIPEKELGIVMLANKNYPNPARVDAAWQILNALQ
In short: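 AmpC (5.3 nM in the dispensed reagent) in 20 mM phosphate pH 7.0 with 0.01% (detergent screen) or 0.0001% Triton X-100 was preincubated with compounds for 15 min at room temperature. Nitrocefin was then added from an 800 uM solution, and hydrolysis was followed at 480 nm.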
Potency means the concentration at half of the fitted maximal effect; tags describe the fitted curve by direction and shape.

| Compound | Potency |
| --- | --- |
| O=Cc1ccc(Sc2nnc(-c3ccccc3)o2)c([N+](=O)[O-])c1 | inconclusive [inhibitor, full curve, poor fit] |
| COC(=O)c1ccc(/C=C2/SC(=S)N(CCCC(=O)Nc3ccccn3)C2=O)cc1 | inconclusive [inhibitor, full curve, poor fit] |
| COc1ccc(-c2nc3scc(-c4ccc(OC)c(OC)c4)c3c(=O)o2)cc1 | inconclusive [inhibitor, full curve, poor fit] |
| CS(=O)(=O)N1CCc2cc(S(=O)(=O)NCCNS(=O)(=O)c3ccc4c(c3)CCN4S(C)(=O)=O)ccc21 | inconclusive [inhibitor, full curve, poor fit] |
| CCOc1cc(N2CCOCC2)c(OCC)cc1NC(=O)Cc1cccc(OC)c1 | inactive |
| Cc1ccc(NC(=O)CCc2nc(-c3cccs3)no2)c(Br)c1 | inconclusive [inhibitor, full curve, poor fit] |
| Cc1cc(N2CCC(C(=O)N3CCN(c4cccc(C)c4C)CC3)CC2)n2ncnc2n1 | inconclusive [inhibitor, full curve, poor fit] |
| COc1ccccc1C1NC(c2ccccc2OC)C(C)C(=O)C1C (stereo not given) | inconclusive [inhibitor, partial curve, poor fit] |
| O=C(CC(c1ccccc1)c1ccccc1)NCC(O)c1ccc([N+](=O)[O-])cc1 (stereo not given) | inconclusive [inhibitor, full curve, poor fit] |
| O=C(CCS(=O)(=O)c1ccc(F)cc1)Nc1nnc(-c2ccco2)o1 | inconclusive [inhibitor, single point] |
| Cc1ccc(C)c(NC(=O)C[n+]2ccccc2)c1 | inconclusive [inhibitor, full curve, poor fit] |
| COc1cccc(NC(=O)c2cccs2)c1 | inconclusive [inhibitor, full curve] |
| O=C(O)c1cc(NC(=S)NC(=O)C(c2ccccc2)c2ccccc2)ccc1Cl | inactive |
| N=C1S/C(=C\c2ccc(-c3cccc(Cl)c3)o2)C(=O)N1c1nccs1 | inconclusive [inhibitor, single point] |
| CC1CN(C(=O)CSc2nnc(NC(=O)NC(C)(C)C)s2)CC(C)O1 (stereo not given) | inconclusive [inhibitor, partial curve, poor fit] |
| O=C(O)C1CC=CCC1C(=O)NCCc1cccc(Cl)c1 (stereo not given) | inconclusive [inhibitor, single point] |
| CCOc1ccccc1C(=O)Nc1ccccc1C(N)=O | inconclusive [inhibitor, full curve] |
| Cc1ccc(C)c(NC(=S)NNC(=O)c2ccco2)c1 | inactive |
| COc1ccc(/C=N/NC(=O)COc2ccccc2-c2ccccc2)cc1 | inactive |
| Cc1ccc2cc(CN(Cc3nnnn3Cc3ccco3)CC3CCCO3)c(=O)[nH]c2c1C (stereo not given) | inactive |

| Compound | Potency |
| --- | --- |
| COC(=O)C1=C(C)NC(C)=C(C(=O)OC)C1c1ccccc1[N+](=O)[O-] | inconclusive [inhibitor, full curve, poor fit] |
| Cc1n[nH]c(C)c1-c1nc2ccccc2[nH]1 | inconclusive [inhibitor, full curve, poor fit] |
| Cc1occc1C(=O)NNC(=O)c1cccc(F)c1 | inconclusive [inhibitor, partial curve, poor fit] |
| CC(C)c1oc(=O)cc2c1[C@@H](O)[C@H]1OC(=O)[C@@]3(C)C[C@@H](O)[C@@H](O)[C@@]2(C)C13 (stereo not given in full) | inconclusive [inhibitor, full curve, poor fit] |
| CCc1ccc2nc(NC(=O)C3CSC4(C)CCC(=O)N34)sc2c1 (stereo not given) | inconclusive [inhibitor, partial curve, poor fit] |
| CC(C)c1ccccc1NC(=O)Cn1c(/C=C/c2ccccc2)nc2ccccc21 | inactive |
| O=C(COC(=O)Cc1ccc(Cl)cc1Cl)NCCC1=CCCCC1 | inconclusive [inhibitor, partial curve, poor fit] |
| O=C(CCc1nc(-c2ccc(Cl)cc2)no1)NC1CCCC1 | inconclusive [inhibitor, full curve, poor fit] |
| Cc1cc(C)c(C#N)c(SCc2ccccc2C(=O)O)n1 | inconclusive [inhibitor, partial curve, poor fit] |
| CCCOc1ccc2oc(=O)c3c(c2c1)CCCN3C(=O)CN1CCc2ccccc2C1 | inconclusive [inhibitor, full curve, poor fit] |
| COc1cccc(CN(C)C(=O)c2ccccc2SCC(=O)N2CCCC2)c1 | inconclusive [inhibitor, partial curve, poor fit] |
| COc1cccc(CNCC2CCCO2)c1 (stereo not given) | inconclusive [inhibitor, full curve, poor fit] |
| CCOCCCNC(=O)C(Cc1ccccc1)NC(=O)c1ccco1 (stereo not given) | inconclusive [inhibitor, full curve, poor fit] |
| COCCCNC(=O)c1c(NC(=O)c2ccco2)n(Cc2ccccc2)c2nc3ccccc3nc12 | inconclusive [inhibitor, full curve, poor fit] |
| COc1cccc(C(=O)Nc2cccc(S(=O)(=O)NC3=NCCC3)c2)c1 | inactive |
| COc1ccc(N2C(=O)c3ccc(C(=O)OC(C)C)cc3C2=O)cc1 | inconclusive [inhibitor, full curve, poor fit] |
| Oc1cnn(-c2ccccc2)c1 | inconclusive [inhibitor, full curve] |
| O=C1/C(=C/c2ccco2)Oc2c1ccc(O)c2CN1CCCCC1 | inconclusive [inhibitor, full curve, poor fit] |
| O=C1NC(=O)N(CCc2ccc(F)cc2)C(=O)/C1=C/c1cccs1 | inconclusive [inhibitor, single point] |
| CCc1noc(C)c1C(=O)Nc1cccc(S(=O)(=O)N2CCCCCC2)c1 | inconclusive [inhibitor, full curve, poor fit] |

Source: PubChem BioAssay AID485294 (National Center for Advancing Translational Sciences (NCATS), 2010)
